Article PMC3834829
No constants are given. Whether binding was seen depends on the method and setting. For part of these data: In cells and extracts the contact can be indirect. Some results given as binding are weak or reduced against the parent protein; the word gives no strength. For part of these data: Tags and fused reporters may be left off the sequences shown. Values belong to the substance of their own block, whether it stands above or below them.

Sequences of proteins named here, by UniProt entry; tags and fusion partners are left off. A change or cut given only in a name is not applied to a line headed by its entry. Residues count along the entry.
UniProt Q9QYE3: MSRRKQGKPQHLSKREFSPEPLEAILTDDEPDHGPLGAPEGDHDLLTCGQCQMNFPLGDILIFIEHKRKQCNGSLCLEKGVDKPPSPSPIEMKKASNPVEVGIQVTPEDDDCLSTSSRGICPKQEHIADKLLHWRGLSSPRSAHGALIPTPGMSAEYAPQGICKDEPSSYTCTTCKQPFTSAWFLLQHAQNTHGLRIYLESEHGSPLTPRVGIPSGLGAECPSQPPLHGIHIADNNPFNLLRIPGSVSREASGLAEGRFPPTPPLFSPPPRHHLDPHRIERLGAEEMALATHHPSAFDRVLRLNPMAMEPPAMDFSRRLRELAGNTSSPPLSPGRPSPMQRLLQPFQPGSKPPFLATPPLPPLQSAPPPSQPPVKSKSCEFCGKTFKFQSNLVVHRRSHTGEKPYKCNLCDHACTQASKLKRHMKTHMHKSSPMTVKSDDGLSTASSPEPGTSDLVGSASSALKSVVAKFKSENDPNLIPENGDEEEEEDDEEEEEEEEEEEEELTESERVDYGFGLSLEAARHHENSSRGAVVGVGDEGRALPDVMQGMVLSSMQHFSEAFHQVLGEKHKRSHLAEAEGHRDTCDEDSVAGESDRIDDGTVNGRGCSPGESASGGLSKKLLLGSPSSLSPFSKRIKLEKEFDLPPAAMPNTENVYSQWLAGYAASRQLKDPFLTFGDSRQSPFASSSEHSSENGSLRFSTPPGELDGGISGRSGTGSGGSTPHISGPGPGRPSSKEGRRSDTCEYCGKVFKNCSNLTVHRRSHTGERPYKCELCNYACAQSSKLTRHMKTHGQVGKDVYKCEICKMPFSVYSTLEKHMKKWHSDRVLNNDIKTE
UniProt Q9Y5X4: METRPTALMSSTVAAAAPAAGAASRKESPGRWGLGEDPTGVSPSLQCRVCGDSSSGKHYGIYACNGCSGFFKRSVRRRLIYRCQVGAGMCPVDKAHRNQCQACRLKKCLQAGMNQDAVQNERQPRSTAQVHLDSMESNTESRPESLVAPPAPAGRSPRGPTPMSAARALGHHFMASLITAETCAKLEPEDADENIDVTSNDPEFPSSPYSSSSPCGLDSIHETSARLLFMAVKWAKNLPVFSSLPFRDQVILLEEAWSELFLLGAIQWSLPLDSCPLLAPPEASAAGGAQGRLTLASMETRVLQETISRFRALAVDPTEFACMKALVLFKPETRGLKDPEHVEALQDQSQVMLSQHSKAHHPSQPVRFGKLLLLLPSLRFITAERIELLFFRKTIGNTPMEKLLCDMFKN
GST-PNR-(89–410): residues 89-410 of Q9Y5X4
UniProt Q9Y466: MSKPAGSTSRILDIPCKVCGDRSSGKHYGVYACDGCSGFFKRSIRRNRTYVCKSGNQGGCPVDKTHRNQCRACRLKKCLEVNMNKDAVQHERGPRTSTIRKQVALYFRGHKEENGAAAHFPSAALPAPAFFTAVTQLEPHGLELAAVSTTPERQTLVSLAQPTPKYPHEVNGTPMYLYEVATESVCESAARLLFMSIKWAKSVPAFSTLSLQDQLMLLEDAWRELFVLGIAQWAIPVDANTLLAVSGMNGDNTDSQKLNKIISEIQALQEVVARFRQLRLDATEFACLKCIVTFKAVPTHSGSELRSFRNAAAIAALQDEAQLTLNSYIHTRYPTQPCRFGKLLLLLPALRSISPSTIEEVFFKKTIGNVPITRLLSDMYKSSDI
GST-TLX-(100–385): residues 100-385 of Q9Y466
UniProt P03372, residues 282-595: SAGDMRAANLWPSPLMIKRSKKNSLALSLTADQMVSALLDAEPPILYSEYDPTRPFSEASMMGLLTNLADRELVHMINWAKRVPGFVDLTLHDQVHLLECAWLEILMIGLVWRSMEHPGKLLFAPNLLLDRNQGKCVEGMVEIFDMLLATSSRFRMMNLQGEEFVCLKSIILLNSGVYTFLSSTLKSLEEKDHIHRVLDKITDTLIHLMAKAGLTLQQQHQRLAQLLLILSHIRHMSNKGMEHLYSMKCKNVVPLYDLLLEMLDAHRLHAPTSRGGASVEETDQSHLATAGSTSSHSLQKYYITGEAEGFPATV
UniProt P19793, residues 200-462: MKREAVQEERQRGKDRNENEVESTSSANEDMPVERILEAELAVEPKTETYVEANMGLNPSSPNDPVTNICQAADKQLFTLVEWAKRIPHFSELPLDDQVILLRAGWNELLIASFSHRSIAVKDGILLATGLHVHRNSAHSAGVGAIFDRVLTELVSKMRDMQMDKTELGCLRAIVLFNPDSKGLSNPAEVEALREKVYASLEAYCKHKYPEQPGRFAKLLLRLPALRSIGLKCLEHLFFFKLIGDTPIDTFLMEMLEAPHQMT
UniProt P10275, residues 626-919: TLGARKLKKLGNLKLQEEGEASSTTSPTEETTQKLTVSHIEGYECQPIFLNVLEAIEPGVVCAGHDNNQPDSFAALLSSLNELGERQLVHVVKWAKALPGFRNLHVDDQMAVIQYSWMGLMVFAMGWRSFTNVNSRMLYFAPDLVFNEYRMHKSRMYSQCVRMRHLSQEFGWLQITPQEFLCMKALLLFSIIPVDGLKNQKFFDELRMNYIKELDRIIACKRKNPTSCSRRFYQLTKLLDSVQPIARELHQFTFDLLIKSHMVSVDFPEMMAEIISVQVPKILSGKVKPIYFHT
UniProt Q64104: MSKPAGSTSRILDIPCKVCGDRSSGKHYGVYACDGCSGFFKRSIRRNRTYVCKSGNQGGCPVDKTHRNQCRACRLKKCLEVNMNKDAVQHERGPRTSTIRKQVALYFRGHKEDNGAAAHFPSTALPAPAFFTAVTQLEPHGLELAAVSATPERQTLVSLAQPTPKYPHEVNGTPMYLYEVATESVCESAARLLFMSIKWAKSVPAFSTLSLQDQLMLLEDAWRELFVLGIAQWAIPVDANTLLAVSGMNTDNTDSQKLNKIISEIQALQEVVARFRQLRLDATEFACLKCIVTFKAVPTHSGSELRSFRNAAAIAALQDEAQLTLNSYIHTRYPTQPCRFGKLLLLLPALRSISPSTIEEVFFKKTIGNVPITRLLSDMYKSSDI

What was measured:
LexA-BCL11A-(310–325) [1] = molecular target: T1, LexA-BCL11A-(310–325) (UniProt Q9H165); test: two-hybrid; S. cerevisiae L40; LexA DBD fusion with VP16 AAD-NR fusion; β-galactosidase activity in cell-free extracts; 10^-6 M cognate ligand added
T1 sequence: PPAMDFSRRLRELAGN

LexA-BCL11A-(651–670) [2] = molecular target: T2, LexA-BCL11A-(651–670) (UniProt Q9H165); test: as above
T2 sequence: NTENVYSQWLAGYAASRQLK

LexA-BCL11A-(310–325) [3] = molecular target: T1, LexA-BCL11A-(310–325); test: two-hybrid; S. cerevisiae L40; LexA DBD fusion with VP16 AAD-NR fusion; β-galactosidase activity in cell-free extracts; vehicle only or no ligand
LexA-BCL11A-(651–670) [4] = molecular target: T2, LexA-BCL11A-(651–670); test: as above
LexA-BCL11A RID2 S657A = molecular target: T3, LexA-BCL11A RID2 S657A (UniProt Q9H165); test: as above
T3 sequence: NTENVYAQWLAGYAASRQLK

[5] = molecular target: FLAG-BCL11A-XL (WT), HEK293 (UniProt Q9H165); test: co-IP; HEK293 co-transfected; nuclear extracts in Triton X-100 lysis buffer; FLAG-tagged BCL11A-XL precipitated with anti-FLAG M2; Western blot
[6] = molecular target: FLAG-BCL11A-XL Y656A/W659A, HEK293 (UniProt Q9H165); test: as above
[7] = molecular target: endogenous BCL11A proteins, mouse cerebral cortex (mouse (endogenous in cerebral cortex)) (UniProt Q9QYE3); test: co-IP; endogenous proteins, adult mouse cerebral cortex extract in Triton X-100 lysis buffer; BCL11A immunoprecipitated; Western blot
GST-PNR-(89–410) = GST-PNR-(89–410) (UniProt Q9Y5X4); test: pull-down; GST fusion proteins on glutathione-Sepharose beads with 35S-labelled in vitro translated BCL11A-XL; NETN buffer (20 mM Tris pH 8.0, 100 mM NaCl, 1 mM EDTA, 0.5% NP-40); for GST-PPARγ with 1 µM roziglitazone or vehicle; only the target purified
GST-COUP-TFII-(144–414) = molecular target: T4, GST-COUP-TFII-(144–414) (UniProt P24468); test: as above
T4 sequence: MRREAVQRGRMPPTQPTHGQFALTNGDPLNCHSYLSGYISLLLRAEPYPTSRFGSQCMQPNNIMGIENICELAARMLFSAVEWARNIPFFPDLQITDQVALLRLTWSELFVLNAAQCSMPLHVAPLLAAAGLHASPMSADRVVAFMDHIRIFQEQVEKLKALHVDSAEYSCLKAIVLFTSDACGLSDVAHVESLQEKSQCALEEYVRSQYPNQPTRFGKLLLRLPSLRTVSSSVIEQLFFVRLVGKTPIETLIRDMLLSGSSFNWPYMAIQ

GST-TLX-(100–385) = GST-TLX-(100–385) (UniProt Q9Y466); test: as above

Substance: AAD-ERα-LBD-(282–595) (from UniProt P03372 282-595) (domain or fragment)
binding (LexA-BCL11A-(310–325) [1]): no binding
binding (LexA-BCL11A-(651–670) [2]): no binding

Substance: AAD-RXRα-LBD-(200–462) (from UniProt P19793 200-462) (domain or fragment)
binding (LexA-BCL11A-(310–325) [1]): no binding
binding (LexA-BCL11A-(651–670) [2]): no binding

Substance: HA-PNR-(89–410), HEK293 (from UniProt Q9Y5X4 89-410) (domain or fragment)
binding [5]: binds
binding [6]: binds

Substance: HA-TLX, HEK293 (from UniProt Q9Y466 1-385)
binding [5]: binds

Substance: in vitro translated 35S-labelled FLAG-BCL11A-XL L319A/Y656A/W659A (from UniProt Q9H165-1 1-835)
binding (GST-PNR-(89–410)): no binding
binding (GST-COUP-TFII-(144–414)): no binding
binding (GST-TLX-(100–385)): no binding

Second part, the substance after the results:

binding (LexA-BCL11A-(310–325) [1]): no binding
binding (LexA-BCL11A-(651–670) [2]): no binding
Substance: AAD-AR-LBD-(626–919) (from UniProt P10275 626-919) (domain or fragment)

binding (LexA-BCL11A-(310–325) [3]): binds
binding (LexA-BCL11A-(651–670) [4]): no binding
Substance: AAD-PNR-LBD-(131–410) (from UniProt Q9Y5X4 131-410) (domain or fragment)

binding (LexA-BCL11A-(310–325) [3]): binds
binding (LexA-BCL11A RID2 S657A): binds
binding (LexA-BCL11A-(651–670) [4]): binds
Substance: AAD-TLX-LBD-(100–385) (from UniProt Q9Y466 100-385) (domain or fragment)

binding [7]: binds
Substance: endogenous TLX, mouse cerebral cortex (from UniProt Q64104 1-385)

binding (GST-PNR-(89–410)): binds
binding (GST-COUP-TFII-(144–414)): binds
binding (GST-TLX-(100–385)): binds
Substance: in vitro translated 35S-labelled FLAG-BCL11A-XL wild type (from UniProt Q9H165-1 1-835)
